Out of some 150,000 compounds screened, about 6,500 (4.3%) were called active. This list was built around the results that the source calls inconclusive (neither active nor inactive); the mix of calls is not that of the screen. The call rests on the fitted dose curve; in most records, active means well fitted inhibition curve with a large enough effect (not every such curve was filed as active); inconclusive means small, poorly fitted or top-dose-only effect, or another doubt; inactive means no such curve, though single readings can be large or run the other way. Where the call is inconclusive, the potency comes from a doubtful curve fit.
target: 15-hydroxyprostaglandin dehydrogenase [NAD(+)] (Homo sapiens) (UniProt P15428); test: qHTS Assay for Inhibitors of HPGD (15-Hydroxyprostaglandin Dehydrogenase); conditions: purified HPGD, NADH fluorescence kinetic, PGE2 substrate; activity change, negative = inhibition: active compounds read low
Method in brief: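 NADH formation kinetics: reaction with 30 uM PGE2 and 1 mM NAD+ (final), 20 nM enzyme, Tris-HCl pH 8 with Tween 20, after 15 min compound preincubation at room temperature. Fluorescence change, last versus first of five reads.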
On the % scale 0 is the no-effect control and ±100 the full control effect; potency means the concentration at half of the fitted maximal effect; tags describe the fitted curve by direction and shape.

Sequence of UniProt P15428 (P15428 whole entry, looked up): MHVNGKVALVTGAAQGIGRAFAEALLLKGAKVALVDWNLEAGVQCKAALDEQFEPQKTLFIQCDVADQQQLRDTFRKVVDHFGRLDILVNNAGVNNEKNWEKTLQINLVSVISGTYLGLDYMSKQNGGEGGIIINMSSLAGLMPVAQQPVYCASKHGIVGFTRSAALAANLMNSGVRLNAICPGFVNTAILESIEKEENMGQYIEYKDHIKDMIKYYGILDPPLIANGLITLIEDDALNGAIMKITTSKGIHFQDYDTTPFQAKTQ

Potency, inconclusive:
CCc1nnc(NC(=O)c2ccc(-c3ccc(Cl)cc3)o2)s1 25.1 µM [inhibitor, partial curve]
N#Cc1cc(N)c(Nc2ccccc2)cc1C#N 35.5 µM [inhibitor, partial curve]
O=C(c1c(Cl)nc2sccn12)N(C(=O)c1c(Cl)nc2sccn12)c1ccc(Cl)cn1 11.2 µM [inhibitor, partial curve, poor fit]
O=Nc1c(O)n(Cc2ccc(Cl)c(Cl)c2)c2ccccc12 22.4 µM [inhibitor, partial curve]
Fc1cccc(-c2cc3nc4c(c(NCc5ccco5)n3n2)CCCC4)c1 28.2 µM [inhibitor, single point]
N#Cc1c(NC(=O)CSc2nnc(-c3ccccc3O)n2-c2ccccc2)sc2c1CCCC2 31.6 µM [inhibitor, partial curve]
COC(=O)c1cnn2c(C(F)(F)F)cc(-c3ccco3)nc12 31.6 µM [inhibitor, partial curve]
COc1cc(OC)c2c(-c3cccc(-c4ccc(CO)cc4)c3)cc(=O)oc2c1 35.5 µM [inhibitor, partial curve]
Cc1ccc(-c2cc3nc(-c4ccccc4)cc(N4CCC5(CC4)OCCO5)n3n2)cc1 28.2 µM [inhibitor, partial curve]
COc1ccc(C2Nc3ccccc3C(=O)N2Cc2ccccc2)cc1COc1ccccn1 (stereo unspecified) 8.91 µM [inhibitor, partial curve]
COC(=O)c1ccc(-c2ncc(-c3cccc4ccccc34)o2)cc1 28.2 µM [inhibitor, partial curve]
CC1(C)Cc2ccccc2-c2nnc(SCC(=O)N3CCc4ccccc43)n21 28.2 µM [inhibitor, partial curve]
COCCn1c(SCC(=O)Nc2nnc(C)s2)nnc1-c1cc2ccccc2cc1O 14.1 µM [inhibitor, partial curve]
O=C(Cn1c2ccccc2c(=O)c2ccccc21)Nc1ccccc1F 7.94 µM [inhibitor, partial curve]
N#Cc1c(C(F)(F)F)cc(-c2cccs2)nc1SCc1cccnc1 35.5 µM [inhibitor, partial curve]
N=c1c(C(=O)NCc2ccccc2)cc2c(=O)n3ccccc3nc2n1Cc1ccco1 22.4 µM [inhibitor, partial curve]
CC(C)C1N=C2c3ccccc3N=C(SCC#N)N2C1=O (stereo unspecified) 31.6 µM [inhibitor, single point]
O=C1c2ccccc2C(=O)N1CCCCn1c(=O)oc2ccccc21 22.4 µM [inhibitor, partial curve]
COc1ccc2oc(=O)c(C(=O)N3CCN(c4ccc(F)cc4)CC3)cc2c1 12.6 µM [inhibitor, partial curve, poor fit]
C=CCNC(=O)/C=C/c1c(F)cccc1Cl 22.4 µM [inhibitor, single point]
Cc1csc(NC(=O)c2cccs2)n1 28.2 µM [inhibitor, partial curve]
CN(C)S(=O)(=O)c1ccc(C(=O)Nc2nnc(SCc3cccc(F)c3)s2)cc1 31.6 µM [inhibitor, partial curve]
COc1ccc(C(=O)CSc2ccc(-c3ccccc3)nn2)cc1 17.8 µM [inhibitor, partial curve]
CCn1c(-c2cc(-c3ccccc3OC)nc3ccccc23)n[nH]c1=S 22.4 µM [inhibitor, partial curve, poor fit]
COC(=O)/C(=C/Nc1cccc2ccccc12)[N+](=O)[O-] 14.1 µM [inhibitor, partial curve]
CCOc1cccc(-c2nc3cc(C)ccc3o2)c1 31.6 µM [inhibitor, single point]
Cc1ccc(C2=CSC3=NCCN23)c(C)c1 39.8 µM [inhibitor, single point]
COc1cc2c(cc1NC(=O)COC(=O)[C@@H](NC(=O)c1ccccc1)C(C)C)oc1ccccc12 35.5 µM [inhibitor, partial curve]
COc1ccc(/C(C)=C(\C#N)C(=O)OC(C)C)cc1OC 11.2 µM [inhibitor, partial curve]
CCS(=O)(=O)NCc1csc(-c2ccccc2)n1 15.8 µM [inhibitor, partial curve]
Cc1cccc(-c2nnc(SCc3ccccc3)o2)c1 31.6 µM [inhibitor, partial curve]
CCN(CC)C(=O)CSc1nc2ccccc2c(=O)n1CCC(=O)NCc1ccc(F)cc1 39.8 µM [inhibitor, single point]
Cc1ccccc1N1CCN(C(=S)c2ccc([N+](=O)[O-])cc2)CC1 31.6 µM [inhibitor, single point]
CCOc1c2ccc(C(=O)NCc3ccc(OC)cc3)cc2nn1CCOC 31.6 µM [inhibitor, partial curve]
COc1ccccc1N1CCN(c2nc(C)nc3c2oc2ccccc23)CC1 39.8 µM [inhibitor, partial curve]
O=C(CCN1CCc2ccccc2C1)c1ccc2c(c1)OCCO2 28.2 µM [inhibitor, partial curve]
CCC(=O)Nc1c(-c2cccs2)c(=O)c2ccccc2n1C 31.6 µM [inhibitor, partial curve]
CCc1c2c(nc3cccc(SC)c13)COC2 15.8 µM [inhibitor, partial curve]
COc1ccc(/C=C/c2nc(-c3ccccc3O)n[nH]2)cc1OC 22.4 µM [inhibitor, single point]
CCOc1ccc(Nc2oc(-c3cccc(Cl)c3)nc2C#N)cc1 22.4 µM [inhibitor, partial curve]
O=C(Cc1ccccc1)Nc1cccc(-c2nnc(-c3ccco3)o2)c1 6.31 µM [inhibitor, partial curve]
COc1cc(/C=N/NC(=S)N/N=C/c2cc(OC)c(OC)c(OC)c2)cc(OC)c1OC 20 µM [inhibitor, partial curve, poor fit]

Potency, active:
COCCNC(=O)c1cc(Br)ccc1Cl 22.4 µM
COc1ccccc1N(CC(=O)Nc1cccnc1)S(=O)(=O)c1ccccc1 14.1 µM
O=C(CSC1CCCCC1)Nc1ccccc1Br 17.8 µM
O=C(NCC1CCCO1)c1ccc2c(c1)OCO2 (stereo unspecified) 2 µM
CC(=O)OC1c2ccccc2C(=O)N1Cc1ccccc1Cl (stereo unspecified) 17.8 µM
COc1ccc(-n2cnc3cc(NS(=O)(=O)c4ccccc4)ccc32)cc1 11.2 µM
CCOCc1nnc(NC(=O)c2cc(Cl)ccc2OC)s1 14.1 µM
Cc1ccc(S(=O)(=O)N2C(=O)C(c3ccccc3)SC2=Nc2ccccc2)cc1 (stereo unspecified) 10 µM
O=C(O)CCCN1C(=O)/C(=C/c2ccc(-c3nc4ccccc4s3)o2)SC1=S 17.8 µM
COc1ccc2nc(Nc3sc4c(c3C(N)=O)CCCC4)sc2c1 15.8 µM
O=C(OCc1nc2ccccc2s1)c1ccc(Br)s1 15.8 µM
CCC1=C/C(=C\c2ccc3c(c2)OCO3)C(=O)S1 28.2 µM
S=c1[nH]nc(-c2ccc3ccccc3n2)n1-c1ccccc1Cl 10 µM

Activity change, negative = inhibition, inactive:
COc1ccc2c(c1)C(=O)[C@H](OC(=O)NS(=O)(=O)c1ccc(F)cc1)[C@@H](c1ccc(OC)c(Br)c1)O2 -12.5%
CCN=C1SC(CC(=O)NCCc2ccc(OC)c(OC)c2)C(=O)N1CC (stereo unspecified) -4.45%
Cc1ccc2c(C)c(C(=O)Nc3c(C)n(C)n(-c4ccccc4)c3=O)oc2c1C -4.33%
CC(=O)c1ccc(-c2ccc(-c3cc(=O)oc4c(C(C)C)ccc(C)c34)cc2)cc1 -23.2%
CC1=C(C(=O)Nc2ccc(C)cc2C)C(c2ccc(C)o2)NC(=S)N1 (stereo unspecified) -3.21%
O=C(CN1C(=O)c2ccccc2S1(=O)=O)NCc1ccccc1Cl -7.33%
O=C1CCCCCC1C1(O)C(=O)Nc2ccccc21 (stereo unspecified) -9.68%
COC(=O)c1ccc(C(/C=C/[C@@H](C)C(=O)NCCN2CCCC2)NC(=O)OCc2ccccc2)cc1 (stereo partly specified) -7.6%
Cc1cccc(N2C(=O)CC(N3CCN(c4ccccc4)CC3)C2=O)c1 (stereo unspecified) -11.8%
CCOC(=O)Cn1c(=O)n(Cc2ccco2)c(=O)c2ccc(C(=O)NCCc3ccccc3)cc21 -11.7%
O=C(OC1Cn2c(=O)ccc(=O)n2C1)c1ccccc1 -13.3%
Cc1cccc(NC(=S)NC(NC(=O)c2ccco2)C(Cl)(Cl)Cl)c1 (stereo unspecified) -20.4%
O=C(CSc1nc2ncccc2[nH]1)c1ccc(F)cc1 -25.7%
Cc1cc(NC(=O)CCC(=O)N(CC(=O)NC2CCCC2)c2ccccc2)no1 -12.6%
COc1ccc(S(=O)(=O)N2c3ccccc3OCC2c2ccccc2)cc1 (stereo unspecified) -1.4%
COc1ccc(C(=O)Nc2nc(-c3ccc(OC)cc3)c(-c3ccc([N+](=O)[O-])cc3)s2)cc1 -12.2%

— PubChem BioAssay AID894 (National Center for Advancing Translational Sciences (NCATS), 2007)
